Screen size: about 43,000 compounds; about 200 (0.47%) were called active. About 12% were inconclusive and are not listed. Calls follow the shape of the dose curve; as a rule, active = well fitted cell-killing curve with a large enough effect; inconclusive = small, poorly fitted or top-dose-only effect, or effect the other way; inactive = flat fitted curve, though single readings scatter. The list shows a part of the results.
Experiment: Cell viability qHTS assay in S16 Pmp22-F2sN cells; also: nearly all actives have a fitted effect of over 65% in size
Conditions: S16 Pmp22-F2sN Schwann cells (luciferase reporters placed in the Pmp22 gene) viability, CellTiter-Glo, 24 h; series mostly up to 57.5 µM; activity change, negative = cytotoxicity: at the top concentration
Outline: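 CellTiter-Glo counter-screen, qHTS, 1536-well. Cells: S16(c9) Pmp22-F2sN, 500-1,000/well in DMEM + 10% FBS. Cpd 23 nL pin transfer, 24 h, 37C/5% CO2. Read: luminescence, CCD imager.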
% is scaled to controls: 0 for no effect and ±100 for the full control effect.

Row | SMILES | activity change, negative = cytotoxicity
1 | CCc1ccc(NC(=O)C2=C(C)C(=O)OC23CCCCC3)cc1 | inactive: -19.9%
2 | COCCNc1nc2c(c(=O)n(Cc3cccc(Cl)c3)c(=O)n2C)n1C | inactive: -1.58%
3 | Cc1ccc(NC(=O)C2CCC(CNS(=O)(=O)c3ccc4c(c3)CCCC(=O)N4)CC2)cc1F (stereo not drawn) | inactive: -0.0679%
4 | COc1ccc(S(=O)(=O)N(CC(=O)NCCSc2ccccc2)c2ccc(C)cc2)cc1 | inactive: 2.13%
5 | CC(=O)c1cccc(NC(=O)Cc2ccc(NC(=O)N3CCCCc4ccccc43)cc2)c1 | inactive: 2.23%
6 | COC(=O)c1ccc(NC(=O)C(=O)NCC(c2cccnc2)N2CCN(c3ccccc3)CC2)cc1 (stereo not drawn) | inactive: 12.6%
7 | CCOC(=O)c1cc(-c2ccccc2)n(CCC(=O)NCCc2cccc(C)c2)c1C | inactive: -10.3%
8 | CCCCNc1oc(-c2ccc(COc3ccccc3C)o2)nc1C#N | inactive: -21.8%
9 | CCOC(=O)c1c(-c2ccc(OC)c(OC)c2)csc1NC(=O)c1ccc(C)cc1 | inactive: 1.28%
10 | CCCCN1CCCc2cc(CN(CCCN3CCOCC3)C(=O)Nc3ccc(CC)cc3)ccc21 | inactive: 14.1%
11 | O=C(O)c1cccc(NC(=O)c2cc3cc(Br)cc(Br)c3oc2=O)c1 | inactive: 0.134%
12 | O=C(NCc1ccc(F)cc1)c1cc2cccc3c2n1CCS3 | inactive: -1.42%
13 | Cc1ccc(NC(=O)CN2C(=O)C(c3ccc(C(C)(C)C)cc3)=NC2(C)C)cc1 | inactive: -13.6%
14 | CCCN(CCC)C(=O)CSc1c2c(nc3ccc(Cl)cc13)CCCC2 | inactive: 26.9%
15 | O=[N+]([O-])c1cc(-c2nc(-c3ccccc3)no2)ccc1NCc1cccnc1 | inactive: 0.44%
16 | COc1ccccc1CNC(=O)CCCCn1c(=O)c2ccccc2n(CC(=O)Nc2c(C)cc(C)cc2C)c1=O | inactive: 26.8%
17 | COc1ccccc1Cc1nc2ccccc2nc1SCC(=O)Nc1ccc2c(c1)OCO2 | inactive: -7.05%
18 | Cc1ccc(C)c(NC(=O)C(Cc2ccccc2)n2cccc2)c1 (stereo not drawn) | inactive: -5.53%
19 | COc1ccc(OC)c(NC(=O)Cn2c(=O)n(Cc3ccco3)c(=O)c3cc(OC)c(OC)cc32)c1 | inactive: 7.18%
20 | Brc1ccc(Nc2c3c(nc4nncn24)CCC3)cc1 | inactive: -25.4%
21 | Cc1ccc(C(=O)Nc2ccc(-c3nc4ccccc4o3)cc2)cc1Cl | inactive: -1.3%

Row | SMILES | activity change, negative = cytotoxicity
22 | Cc1cc(C)cc(-n2c(SCC(=O)Nc3cccc(F)c3)nc3c([nH]c4ccccc43)c2=O)c1 | inactive: 4.84%
23 | COc1ccc(N(Cc2cccs2)C(=O)COc2cccc(C)c2C)cc1 | inactive: -2.6%
24 | CCN1CCN(c2ncc3c(n2)CCN(CC(C)C)C3)CC1 | inactive: 11.8%
25 | CSc1ccc(NC(=O)C2CCN(c3ncccn3)CC2)cc1 | inactive: -18.8%
26 | CCOC(=O)N1CCc2c(sc(NCc3cccc(F)c3)c2C(=O)Nc2ccc(OC)cc2)C1 | inactive: 2.94%
27 | Cc1ccc(CNc2nc3ccc(Cl)cc3n3nnnc23)cc1 | inactive: 0.317%
28 | COc1ccc(-n2cc(-c3ccccc3)nc2SCC(=O)Nc2ccccc2C)cc1 | inactive: 0.0181%
29 | COc1cc(NC(=O)CCn2c(=O)oc3ccccc32)cc(OC)c1OC | inactive: 2.63%
30 | Cc1cc(-c2ccc(C)c(S(=O)(=O)Nc3ccccn3)c2)on1 | inactive: -0.302%
31 | COc1cc(OC)c(NS(=O)(=O)c2c(C(=O)N3CCCCCC3)c(C)n(C)c2C)cc1Cl | inactive: 13.4%
32 | COc1ccc(Br)cc1CNC(=O)c1ccc2nc(C(C)C)oc2c1 | inactive: 2.65%
33 | Cc1cccc(CC(=O)N2CC(=O)Nc3ccc(C)cc3C2c2ccc(F)cc2)c1 (stereo not drawn) | inactive: -7.69%
34 | CCOc1ccc2oc(=O)cc(CN3CCN(Cc4ccc(C)cc4)CC3)c2c1 | inactive: -9%
35 | Cc1ccc(Nc2c3c(nc4nc(-c5cccs5)nn24)CCCC3)cc1F | inactive: 4.35%
36 | Cc1oc(-c2ccc(Cl)cc2)nc1CS(=O)CC(=O)NCCc1ccccc1 (stereo not drawn) | inactive: 21.1%
37 | CCOC(=O)Cn1nc(C)c(NC(=O)COc2ccccc2)c1C | inactive: -4.33%
38 | COc1ccc(S(=O)(=O)NC(C)(C)C)cc1-c1nnc2c3ccccc3c(C)nn12 | inactive: 7.45%
39 | Cc1cccc(Cn2c(=O)n(CCCC(=O)NCc3ccccc3Cl)c(=O)c3ccccc32)c1 | inactive: 0.199%
40 | COc1ccccc1CNc1nc(-c2ccco2)nn1S(C)(=O)=O | inactive: -20.4%
41 | Cc1ccc(S(=O)(=O)c2nc(-c3cccs3)oc2SCC(=O)Nc2cc(C)cc(C)c2)cc1 | inactive: 0.772%
42 | COc1ccccc1OCC(=O)N(Cc1cccs1)C1CCS(=O)(=O)C1 (stereo not drawn) | inactive: 3.16%

Row | SMILES | activity change, negative = cytotoxicity
43 | COc1ccccc1NC(=O)CN(c1cc(C)cc(C)c1)S(=O)(=O)c1c(C)[nH]c(=O)[nH]c1=O | inactive: 5.13%
44 | CCc1nnc(SCc2nc(-c3cccc(Cl)c3)oc2C)c2cc3sc(C)cc3n12 | inactive: 2.75%
45 | COc1cc(OC)c(NS(=O)(=O)c2cc3c(cc2C)N(C(C)=O)CCO3)cc1Cl | inactive: 2.41%
46 | COc1ccc(Cl)cc1NC(=O)CCn1c(=O)c2cccn2c2ccccc21 | inactive: 8.71%
47 | Cc1ccc(C)c(Cn2c(=O)cc(C(F)(F)F)c3c(C)nn(C)c32)c1 | inactive: -1.04%
48 | Cc1ccccc1C(=O)NCc1nc(-c2ccc(Cl)cc2)no1 | inactive: -22.9%
49 | NC(=O)c1c(NC(=O)c2cc(-c3ccc(F)cc3)on2)sc2c1CCCC2 | inactive: 0.697%
50 | Cc1cccc(NC(=O)Cn2nnc(C(=O)NCc3cccs3)c2N)c1 | inactive: 9.01%
51 | CCC(C(=O)Nc1ccc(C(C)C)cc1)n1nc(C)n2c(cc3cc(C)ccc32)c1=O (stereo not drawn) | inactive: -18.5%
52 | Cc1ccc(NC(=O)c2c(C)nc3sc(C(=O)Nc4ccc(F)cc4)c(N)c3c2-c2ccc(Cl)cc2)c(C)c1 | inactive: 1.02%
53 | COc1cccc(NC(=O)CCc2nnc3n(Cc4ccccc4Cl)c(=O)c4ccccc4n23)c1 | inactive: 14%
54 | Cc1cccc(CN2C(=O)c3ccccc3S(=O)(=O)c3ccc(C(=O)N(C)Cc4ccccc4)cc32)c1 | inactive: 14%
55 | Cc1ccc(Nc2c(-c3ccc(N4CCOCC4)cc3)nc3cccc(C)n23)cc1 | inactive: 0.559%
56 | O=C1CC(c2nnc(Cc3c(F)cccc3Cl)o2)CN1c1ccccc1 (stereo not drawn) | inactive: -4.45%
57 | CCOC(=O)c1ccc(NC2(c3ccccc3)C(=O)c3ccccc3C2=O)cc1 | inactive: 3.35%
58 | COc1ccccc1C(=O)Nc1nnc(S(=O)(=O)N2CCN(c3ccc(F)cc3)CC2)s1 | inactive: 5.55%
59 | CCOC(=O)c1ccc(NC(=O)c2sc3ccccc3c2Cl)cc1 | inactive: 21.8%
60 | Cc1ccc(-c2nnc3ccccc3c2C(=O)Nc2ccc(C)c(F)c2)cc1 | inactive: 0.0639%
61 | Cc1ccc(NC(=O)Cn2nnc(C(=O)NCCc3ccccc3)c2N)cc1 | inactive: 17.9%
62 | Clc1ccc(-c2csc(-c3nc(-c4ccc(Br)s4)cs3)n2)cc1 | inactive: -1.57%
63 | O=C(NCc1ccc(Cl)cc1)c1ccc2c(c1)NC(=O)C(CS(=O)(=O)Cc1ccc(F)cc1Cl)N2 (stereo not drawn) | inactive: -0.804%
